Patent publication US20220259330A1 (SUNSHINE GUOJIAN PHARMACEUTICAL SHANGHAI, published 2022)

T1: recombinant VEGF165 (Acrobiosystems, Cat. No. VE5-H4210) (UniProt P15692-4 27-191)
T1 sequence (looked up): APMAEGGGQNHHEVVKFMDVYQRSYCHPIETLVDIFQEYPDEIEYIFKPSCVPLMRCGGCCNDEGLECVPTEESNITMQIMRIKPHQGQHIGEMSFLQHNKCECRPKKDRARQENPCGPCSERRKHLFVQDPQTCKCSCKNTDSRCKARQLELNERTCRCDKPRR

T2: VEGF165-His (human, UniProt P15692-4 27-191)
T2 construct: also called Human VEGF165 with a 6*His tag
T2 sequence: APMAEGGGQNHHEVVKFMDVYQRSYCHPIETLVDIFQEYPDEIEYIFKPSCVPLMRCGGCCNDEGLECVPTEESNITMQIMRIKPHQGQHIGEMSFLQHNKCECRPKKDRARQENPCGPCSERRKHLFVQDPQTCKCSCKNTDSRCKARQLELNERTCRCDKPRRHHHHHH

T3: LAG3-ECD-His (human, UniProt P18627 23-450)
T3 construct: extracellular domain; Bought; not shown: polyhistidine tag
T3 sequence (looked up): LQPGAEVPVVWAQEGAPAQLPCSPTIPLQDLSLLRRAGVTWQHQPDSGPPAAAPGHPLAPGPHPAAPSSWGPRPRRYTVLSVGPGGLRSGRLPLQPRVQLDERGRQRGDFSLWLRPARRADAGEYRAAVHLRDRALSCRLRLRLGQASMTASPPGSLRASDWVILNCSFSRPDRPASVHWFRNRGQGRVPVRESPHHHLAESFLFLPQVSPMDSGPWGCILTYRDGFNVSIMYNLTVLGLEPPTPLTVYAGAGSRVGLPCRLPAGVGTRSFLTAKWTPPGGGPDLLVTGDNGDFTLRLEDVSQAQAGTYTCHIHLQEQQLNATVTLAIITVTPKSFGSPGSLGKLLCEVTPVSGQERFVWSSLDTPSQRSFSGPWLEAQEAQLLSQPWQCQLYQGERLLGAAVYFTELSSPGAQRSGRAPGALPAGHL


Legend:
[1] = target: T1, recombinant VEGF165 (Acrobiosystems, …); assay: cell-based or functional assay
PD1-His [2] = target: T4, PD1-His (human, UniProt Q15116 in part); assay: ELISA, plate coated with PD1-His
T4 construct: extracellular domain; In-house protein; also called extracellular domain protein of human PD-1 with a 6*His tag

VEGF165-His [3] = target: T2, VEGF165-His; assay: ELISA, plate coated with VEGF165-His
PD1-His [4] = target: T4, PD1-His; assay: SPR, Biacore 8K, antibody captured on Protein A/G chip, PD1-His injected
T4 sequence (Q15116 other isoform, or with tags, fused parts or gaps): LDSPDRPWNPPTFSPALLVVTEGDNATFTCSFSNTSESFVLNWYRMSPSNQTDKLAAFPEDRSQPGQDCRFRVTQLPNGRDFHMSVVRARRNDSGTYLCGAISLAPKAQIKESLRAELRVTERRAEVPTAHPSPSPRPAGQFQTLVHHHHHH

VEGF165-His [5] = target: T2, VEGF165-His; assay: SPR, Biacore 8K, antibody captured on Protein A/G chip, VEGF165-His injected
PD1-ECD-His = target: T5, PD1-ECD-His (human, UniProt Q15116 in part); assay: ELISA, plate coated with PD1-ECD-His
Sequence of PD1-ECD-His (Q15116 25-170): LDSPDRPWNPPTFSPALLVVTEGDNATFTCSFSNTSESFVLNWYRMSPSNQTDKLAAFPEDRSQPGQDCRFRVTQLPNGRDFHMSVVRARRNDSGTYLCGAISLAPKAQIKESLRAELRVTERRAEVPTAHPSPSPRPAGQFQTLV
T5 construct: extracellular domain; Bought; also called recombinant protein of the extracellular segment of human PD-1 with a polyhistidine tag (Sino Biological 10377-H08H); not shown: polyhistidine tag

LAG3-ECD-His = target: T3, LAG3-ECD-His; assay: ELISA, plate coated with LAG3-ECD-His

IC50, inhibition of VEGF165-induced HUVEC proliferation (CCK-8) [1] [nM] | EC50 (PD1-His [2]) [nM] | EC50 (VEGF165-His [3]) [nM] | EC50 (PD1-ECD-His) [nM] | EC50 (LAG3-ECD-His) [nM] | further results | Binder
9.04 | 0.477 | 0.0586 |  |  | Kd (PD1-His [4]): 0.885 nM; koff (PD1-His [4]): 6.66e-05 s⁻¹; kon (PD1-His [4]): 75200 M⁻¹ s⁻¹; Kd (VEGF165-His [5]): 9.26 pM; koff (VEGF165-His [5]): 1.67e-05 s⁻¹; kon (VEGF165-His [5]): 1.81e+06 M⁻¹ s⁻¹ | 20-Fab-601-IgG4-V94L (bispecific antibody) heavy: EVQLVESGGGLVQPGGSLRLSCAASGFVFSNYDMSWVRQAPGKRLEWVATISGGGGYTYYSDSVKGRFTISRDNAKNSLYLQMNSLRAEDTAVYYCASPYGHYGFEYWGQGTLVTVSSASTKGPSVFPLAPCSRSTSESTAALGCLVKDYFPEPVTVSWNSGALTSGVHTFPAVLQSSGLYSLSSVVTVPSSSLGTKTYTCNVDHKPSNTKVDKRVGGGGSGGGGSGGGGSEVQLVESGGGLVQPGGSLRLSCAASGYTFTNYGMNWVRQAPGKGLEWVGWINTYTGEPTYAADFKRRFTFSLDTSKSTAYLQMNSLRAEDTAVYYCAKYPHYYGSSHWYFDVWGQGTLVTVSSASTKGPSVFPLAPCSRSTSESTAALGCLVKDYFPEPVTVSWNSGALTSGVHTFPAVLQSSGLYSLSSVVTVPSSSLGTKTYTCNVDHKPSNTKVDKRV[human IgG4 Fc with S228P (EU numbers) skipped] light: DIQMTQSPSSLSASVGDRVTITCSASQDISNYLNWYQQKPGKAPKVLIYFTSSLHSGVPSRFSGSGSGTDFTLTISSLQPEDFATYYCQQYSTLPWTFGQGTKVEIKRTVAAPSVFIFPPSDEQLKSGTASVVCLLNNFYPREAKVQWKVDNALQSGNSQESVTEQDSKDSTYSLSSTLTLSKADYEKHKVYACEVTHQGLSSPVTKSFNRGEC
3.84 | 1.77 | 0.0389 |  |  |  | 601-Fab-20-IgG4-V94L (bispecific antibody) heavy: EVQLVESGGGLVQPGGSLRLSCAASGYTFTNYGMNWVRQAPGKGLEWVGWINTYTGEPTYAADFKRRFTFSLDTSKSTAYLQMNSLRAEDTAVYYCAKYPHYYGSSHWYFDVWGQGTLVTVSSASTKGPSVFPLAPCSRSTSESTAALGCLVKDYFPEPVTVSWNSGALTSGVHTFPAVLQSSGLYSLSSVVTVPSSSLGTKTYTCNVDHKPSNTKVDKRVGGGGSGGGGSGGGGSEVQLVESGGGLVQPGGSLRLSCAASGFVFSNYDMSWVRQAPGKRLEWVATISGGGGYTYYSDSVKGRFTISRDNAKNSLYLQMNSLRAEDTAVYYCASPYGHYGFEYWGQGTLVTVSSASTKGPSVFPLAPCSRSTSESTAALGCLVKDYFPEPVTVSWNSGALTSGVHTFPAVLQSSGLYSLSSVVTVPSSSLGTKTYTCNVDHKPSNTKVDKRV[human IgG4 Fc with S228P (EU numbers) skipped] light: DIQMTQSPSSLSASVGDRVTITCSASQDISNYLNWYQQKPGKAPKVLIYFTSSLHSGVPSRFSGSGSGTDFTLTISSLQPEDFATYYCQQYSTLPWTFGQGTKVEIKRTVAAPSVFIFPPSDEQLKSGTASVVCLLNNFYPREAKVQWKVDNALQSGNSQESVTEQDSKDSTYSLSSTLTLSKADYEKHKVYACEVTHQGLSSPVTKSFNRGEC
1.63 |  |  |  |  |  | 20-Fab-0313-IgG4-V94L (bispecific antibody) heavy: EVQLVESGGGLVQPGGSLRLSCAASGFVFSNYDMSWVRQAPGKRLEWVATISGGGGYTYYSDSVKGRFTISRDNAKNSLYLQMNSLRAEDTAVYYCASPYGHYGFEYWGQGTLVTVSSASTKGPSVFPLAPCSRSTSESTAALGCLVKDYFPEPVTVSWNSGALTSGVHTFPAVLQSSGLYSLSSVVTVPSSSLGTKTYTCNVDHKPSNTKVDKRVGGGGSGGGGSGGGGSEVQLVESGGGLVQPGGSLRLSCAASGYDFTHYGMNWVRQAPGKGLEWVGWINTYTGEPTYAADFKRRFTFSLDTSKSTAYLQMNSLRAEDTAVYYCAKYPYYYGTSHWYFDVWGQGTLVTVSSASTKGPSVFPLAPCSRSTSESTAALGCLVKDYFPEPVTVSWNSGALTSGVHTFPAVLQSSGLYSLSSVVTVPSSSLGTKTYTCNVDHKPSNTKVDKRV[human IgG4 Fc with S228P (EU numbers) skipped] light: DIQMTQSPSSLSASVGDRVTITCSASQDISNYLNWYQQKPGKAPKVLIYFTSSLHSGVPSRFSGSGSGTDFTLTISSLQPEDFATYYCQQYSTLPWTFGQGTKVEIKRTVAAPSVFIFPPSDEQLKSGTASVVCLLNNFYPREAKVQWKVDNALQSGNSQESVTEQDSKDSTYSLSSTLTLSKADYEKHKVYACEVTHQGLSSPVTKSFNRGEC
 |  |  | 0.12 |  |  | 609-Fab-Pertuzumab-IgG4 (bispecific antibody) heavy: EVKLVESGGGLVQPGGSLRLSCAASGFAFSSYDMSWVRQAPGKRLEWVATISGGGRYTYYPDTVKGRFTISRDNAKNSHYLQMNSLRAEDTAVYFCASPYGGYFDVWGQGTLVTVSSASTKGPSVFPLAPCSRSTSESTAALGCLVKDYFPEPVTVSWNSGALTSGVHTFPAVLQSSGLYSLSSVVTVPSSSLGTKTYTCNVDHKPSNTKVDKRVGGGGSGGGGSGGGGSEVQLVESGGGLVQPGGSLRLSCAASGFTFTDYTMDWVRQAPGKGLEWVADVNPNSGGSIYNQRFKGRFTLSVDRSKNTLYLQMNSLRAEDTAVYYCARNLGPSFYFDYWGQGTLVTVSSASTKGPSVFPLAPCSRSTSESTAALGCLVKDYFPEPVTVSWNSGALTSGVHTFPAVLQSSGLYSLSSVVTVPSSSLGTKTYTCNVDHKPSNTKVDKRV[human IgG4 Fc with S228P (EU numbers) skipped] light: DIQMTQSPSSLSASVGDRVTITCKASQDVSIGVAWYQQKPGKAPKLLIYSASYRYTGVPSRFSGSGSGTDFTLTISSLQPEDFATYYCQQYYIYPYTFGQGTKVEIKRTVAAPSVFIFPPSDEQLKSGTASVVCLLNNFYPREAKVQWKVDNALQSGNSQESVTEQDSKDSTYSLSSTLTLSKADYEKHKVYACEVTHQGLSSPVTKSFNRGEC
 |  |  | 0.161 | 0.208 |  | 609-Fab-5E7-IgG4 (bispecific antibody) heavy: EVKLVESGGGLVQPGGSLRLSCAASGFAFSSYDMSWVRQAPGKRLEWVATISGGGRYTYYPDTVKGRFTISRDNAKNSHYLQMNSLRAEDTAVYFCASPYGGYFDVWGQGTLVTVSSASTKGPSVFPLAPCSRSTSESTAALGCLVKDYFPEPVTVSWNSGALTSGVHTFPAVLQSSGLYSLSSVVTVPSSSLGTKTYTCNVDHKPSNTKVDKRVGGGGSGGGGSGGGGSEVQLVESGGGLVKPGGSLRLSCAASGFTFSDDYMAWFRQAPGKRLEWVASISHGGDYIYYADNLKGRFTISRDNAKNSLYLQMNSLRAEDTAVYFCSRDRRSIDYWGQGTLVTVSSASTKGPSVFPLAPCSRSTSESTAALGCLVKDYFPEPVTVSWNSGALTSGVHTFPAVLQSSGLYSLSSVVTVPSSSLGTKTYTCNVDHKPSNTKVDKRV[human IgG4 Fc with S228P (EU numbers) skipped] light: DIQMTQSPSSLSASVGDRVTITCRASQDISNYLSWYQQKPGKTIKLLIYYTSRLHSGVPSRFSGSGSGTDYTFTISSLQPEDIATYFCQQGKTLPYTFGQGTKVEIKRTVAAPSVFIFPPSDEQLKSGTASVVCLLNNFYPREAKVQWKVDNALQSGNSQESVTEQDSKDSTYSLSSTLTLSKADYEKHKVYACEVTHQGLSSPVTKSFNRGEC
 |  |  | 0.814 | 0.153 |  | 5E7-Fab-609-IgG4 (bispecific antibody) heavy: EVQLVESGGGLVKPGGSLRLSCAASGFTFSDDYMAWFRQAPGKRLEWVASISHGGDYIYYADNLKGRFTISRDNAKNSLYLQMNSLRAEDTAVYFCSRDRRSIDYWGQGTLVTVSSASTKGPSVFPLAPCSRSTSESTAALGCLVKDYFPEPVTVSWNSGALTSGVHTFPAVLQSSGLYSLSSVVTVPSSSLGTKTYTCNVDHKPSNTKVDKRVGGGGSGGGGSGGGGS[about 450 residues with a human IgG4 Fc skipped] light: DIQMTQSPSSLSASVGDRVTITCRASQDISNYLSWYQQKPGKTIKLLIYYTSRLHSGVPSRFSGSGSGTDYTFTISSLQPEDIATYFCQQGKTLPYTFGQGTKVEIKRTVAAPSVFIFPPSDEQLKSGTASVVCLLNNFYPREAKVQWKVDNALQSGNSQESVTEQDSKDSTYSLSSTLTLSKADYEKHKVYACEVTHQGLSSPVTKSFNRGEC
